# Experimental data: the supplement of paper PMC11417369
# ± gives the standard deviation of the averaged measurements. This is one part of the list.
# Test system: PfAP2-I AP2 domain 3 (GST-tagged)
# Experiment: gcPBM binding intensity (ln(normalized median fluorescence intensity)); higher = stronger DNA binding
# Summary of the method: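 Each value is the highest Masliner-normalised natural-log median intensity across replicate spots of either orientation of a probe. The probes were primer-extended double-stranded 36-bp intergenic genomic sequences on an Agilent 4 × 180k array, alongside negative controls, exposed for 1 h to GST-tagged P. falciparum DNA-binding domains expressed in E. coli. Bound protein was picked up with Alexa488 anti-GST antibody and scanned at 488 nm.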
row,Sequence,gcPBM binding intensity (ln)
1,AAAAAAAAAAAAAAATATATATATATATACATACAT [CACACA_negctrl_site317],8.23 ± 0.64
2,TTTTTCTTTTTTTCTTTTTTTATAAAACTTAATTGT [CACACA_negctrl_site384],7.59 ± 0.52
3,TATTAATTATATTTATGTACATAATCATATTATTAT [XGTACX_site7938],7.66 ± 0.39
4,AGAAATATATATATATATATATATATATATATATAT [TGCATGCA_negctrl_site375],9.62 ± 0.3
5,AGTAACAAAAGAAAAAAATATGCAAACATATATATA [XGTACX_negctrl_site468],7.89 ± 1.1
6,TTCATTTTTTGCTTTCAACACACATACAATATATAT [CACACA_site9369],8.01 ± 0.49
7,GGTATACACAAGTATACACACATATATATATATATA [CACACA_site9063],9.28 ± 0.58
8,ACAAAGTTATAATTCTTGCACTTTAAGGTTCATTTA,8.65 ± 0.42
9,ATAAATATCTAGGGTTCACACATTATATATCTGTAT [CACACA_site5702],7.51 ± 0.61
10,CGTGAATATATGATATGTACTTATAAAAATTTGTGC [XGTACX_site5480],7.83 ± 0.52
11,TTTTCCTCTTAAAATATACACACTGATTTAAGAAAA [CACACA_site3301],7.7 ± 0.49
12,ACGTAATAAAATAGTTGTACAACTTTTTATAATATA [XGTACX_site4393],8.01 ± 0.32
13,TTTTTTTTTTTTTTTTTTTTTTTTTTGTTCAGGCCT [GTGCAC_negctrl_site143],8.28 ± 0.99
14,TCATAAATATGAAAAAGTACAAAGGTAGATTTTGAA [XGTACX_site4535],7.69 ± 0.4
15,TATATATATATTATATGTACGTATGTATGTATATAT [XGTACX_site6451],8.7 ± 0.35
16,AAACGATTAATGTGTACACACATAGTTATAAACCTA [CACACA_site2110],7.85 ± 0.3
17,TTTTGGATTGAGGACCTTTTTATAGAATTATGTTTT [TGCATGCA_negctrl_site544],7.49 ± 0.66
18,ATATATAATTTTTACACACGCAATAAATATATATAT [CACACA_site4283],8.76 ± 0.25
19,GTTTCCTTAATATTCACACACATATATATAATATAT [CACACA_site1856],8.22 ± 0.54
20,ATGTTATAAGATTTATGTACACACATATACACACCT [XGTACX_site1316],8.35 ± 0.21
21,TTAACATAAATATATACACACCAATGATGGCATTTA [CACACA_site4952],7.51 ± 0.52
22,TATATATAATATATATGTACGTATATATATAATATA [XGTACX_site8383],7.75 ± 0.14
23,TTTATTTTCCAAAGGGTGCACATAGTTGAAACGATA,11.1 ± 0.44
24,AATAAAGCAATAAATACACACATATTTATATTTATA [CACACA_site7390],7.86 ± 0.37
25,GTATACATGCAAATTTTTATTTACAACCCCAAAAAG [XGTACX_negctrl_site255],8.39 ± 0.5
